# Out of some 270,000 compounds screened, about 5,800 (2.1%) were called active. Inconclusive means that the source gave no clear call. Such entries were picked first, then a sample of the others. Calls come from the whole dose curve; as a rule, active = well fitted inhibition curve with a large enough effect; inconclusive = small, poorly fitted or top-dose-only effect; inactive = flat fitted curve, though single readings scatter. A potency beside an inconclusive call is a rough fit, not a confirmed value.
# Target: Microtubule-associated protein tau (Homo sapiens) (UniProt P10636)
# UniProt P10636, sequence (P10636 whole entry, looked up): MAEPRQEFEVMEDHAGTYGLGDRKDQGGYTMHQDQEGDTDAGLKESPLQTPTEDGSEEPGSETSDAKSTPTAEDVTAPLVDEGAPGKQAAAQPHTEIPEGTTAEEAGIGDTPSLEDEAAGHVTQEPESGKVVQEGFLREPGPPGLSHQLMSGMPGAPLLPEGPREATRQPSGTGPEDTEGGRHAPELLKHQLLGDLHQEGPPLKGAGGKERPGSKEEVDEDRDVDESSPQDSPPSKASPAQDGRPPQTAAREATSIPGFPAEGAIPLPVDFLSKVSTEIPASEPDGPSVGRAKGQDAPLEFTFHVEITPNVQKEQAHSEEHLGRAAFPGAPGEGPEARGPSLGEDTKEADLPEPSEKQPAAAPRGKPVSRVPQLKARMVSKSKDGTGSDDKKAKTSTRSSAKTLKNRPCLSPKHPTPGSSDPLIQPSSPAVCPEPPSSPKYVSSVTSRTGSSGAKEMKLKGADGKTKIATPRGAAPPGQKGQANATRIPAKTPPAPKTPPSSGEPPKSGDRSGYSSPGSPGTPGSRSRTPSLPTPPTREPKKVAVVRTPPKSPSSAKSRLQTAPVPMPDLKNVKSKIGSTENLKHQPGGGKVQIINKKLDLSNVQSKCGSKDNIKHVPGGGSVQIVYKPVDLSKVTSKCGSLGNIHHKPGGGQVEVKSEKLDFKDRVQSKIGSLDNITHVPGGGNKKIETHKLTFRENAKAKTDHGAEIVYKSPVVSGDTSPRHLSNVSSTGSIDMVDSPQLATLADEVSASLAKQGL
# Test: qHTS for Inhibitors of Tau Fibril Formation, Thioflavin T Binding; note: nearly all actives have a fitted effect of over 55% in size
# Settings: recombinant tau K18 P301L, heparin-induced fibrillization, ThT fluorescence; series mostly up to 57.4 µM; activity, negative = inhibition: at the top concentration
# Procedure, shortened: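 Using a mix of unlabeled (15 uM) and Alexa 594-labeled (0.24 uM) tau K18 P301L, heparin-triggered fibrillization over 6 hr at 37 C was scored by ThT fluorescence.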
# % is set by controls: 0 for no effect and ±100 for the full control effect; potency is the fitted concentration of half-maximal effect; tags give direction and shape of the fitted curve.
SMILES,Potency,"activity, negative = inhibition"
CSc1cccc(NC(=O)Cn2c(=O)n(Cc3ccccc3)c(=O)c3sc4ccccc4c32)c1,"inconclusive: 15.8 µM [activator, partial curve, poor fit]",–
COc1ccc(/C=N/NC(=O)Nc2cccc3nsnc23)c(OC)c1,"inconclusive: 3.98 µM [inhibitor, full curve]",–
COc1ccc(/C=N/NC(=O)c2ccc(COc3cccc4cccnc34)cc2)cc1O,"inconclusive: 0.447 µM [inhibitor, full curve]",–
CC(=O)Oc1ccc(N2C(=O)C3C4C=CC(C5CC45)C3C2=O)cc1[N+](=O)[O-] (centres undefined),"inconclusive: 28.2 µM [inhibitor, partial curve]",–
Fc1cccc(Cl)c1CNn1cn[nH]c1=S,–,inactive: -10.6%
CC(C)CNC(=O)C(=O)Nc1c2c(nn1-c1ccccc1)CS(=O)(=O)C2,–,inactive: -7.38%
CN(CC(CC(=O)Nc1nncs1)c1ccccc1)S(=O)(=O)c1ccc(Br)cc1 (centres undefined),–,inactive: -28.7%
Cc1cccc(Oc2coc3cc(OC(=O)c4cccs4)ccc3c2=O)c1,"inconclusive: 12.6 µM [inhibitor, partial curve]",–
CCn1c(SCc2cccc(Br)c2)nnc1-c1nonc1NC(C)=O,–,inactive: -3.19%
Cc1oc(-c2cccc(Cl)c2)nc1CN1CCCC(C(=O)NCCc2ccc(Cl)cc2)C1 (centres undefined),"inconclusive: 20 µM [inhibitor, single point]",–
CCOC(=O)c1c(NC(=O)COc2ccc(Br)cc2)sc2c1CCCC2,–,inactive: 2.25%
O=C(N/N=C/c1ccncc1)c1ccc2c(c1)OCO2,"inconclusive: 14.1 µM [inhibitor, partial curve]",–
CCc1ccccc1NC(=O)Nc1cc(C(=O)NCc2cccc(F)c2)ccc1N1CCCC1,–,inactive: -6.05%
O=C(O)c1ccc(CSc2nc3ccc(N4C(=O)C5C6C=CC(C6)C5C4=O)cc3s2)cc1 (centres undefined),"inconclusive: 17.8 µM [inhibitor, partial curve, poor fit]",–
O=C(CSc1nnc(NC2CCCCC2)s1)Nc1ccc(N2CCOCC2)cc1,"inconclusive: 12.6 µM [inhibitor, partial curve]",–
Cc1ccc(C)c(NC(CC(=O)c2ccccc2)C(=O)OCC(=O)c2cccs2)c1 (centres undefined),–,inactive: -13.7%
CCOc1ccccc1NC(=O)N1c2ccccc2Sc2ccccc21,"inconclusive: 11.2 µM [inhibitor, partial curve]",–
O=C(O)CCCCCN1C(=O)C(O)=C(C(=O)/C=C/c2ccccc2)C1c1ccc2c(c1)OCO2 (centres undefined),"inconclusive: 39.8 µM [inhibitor, single point]",–
Cc1ccc(NC(=O)Cn2nnc3sc4c(c3c2=O)CCC(C)C4)cc1 (centres undefined),–,inactive: -3.78%
COc1ccc(NC(=O)O/N=C/c2c(C)nn(C(C)(C)C)c2C)cc1,"inconclusive: 7.94 µM [inhibitor, partial curve]",–
Cc1cc(N2CCOCC2)ncc1[N+](=O)[O-],"inconclusive: 2.82 µM [inhibitor, partial curve]",–
COc1ccccc1/C=C/C=N/N1CCN(Cc2ccc(Cl)cc2)CC1,"inconclusive: 17.8 µM [inhibitor, partial curve]",–
COC(=O)c1ccc(/C=N/NS(=O)(=O)c2cc(C)ccc2C)cc1,"inconclusive: 14.1 µM [inhibitor, partial curve]",–

SMILES,Potency,"activity, negative = inhibition"
O=C(CN1CCN(Cc2ccccc2Cl)CC1)N/N=C/C=C/c1ccco1,"inconclusive: 10 µM [inhibitor, partial curve]",–
CCOc1cc(CNC2CCCC2)cc(Cl)c1OCc1ccc(F)cc1,"inconclusive: 39.8 µM [inhibitor, single point]",–
NS(=O)(=O)c1ccc(N=Nc2c[nH]c(=O)c(O)c2)cc1,active: 2.51 µM,–
C/C(=N\NC(=O)c1csc2ccccc12)c1ccc(O)cc1,"inconclusive: 6.31 µM [inhibitor, partial curve]",–
CCCCNC(=S)NCCN1CCCCC1,–,inactive: 1.12%
CCCn1c2ccc(/C(C)=N\O)cc2c2cc(/C(C)=N/O)ccc21,"inconclusive: 3.98 µM [inhibitor, full curve]",–
CC1(OC(=O)CCc2ccccc2)C(=O)C=C2C=C(c3ccc(C#N)cc3)N(Cc3ccco3)C=C2C1=O (centres undefined),"inconclusive: 12.6 µM [inhibitor, partial curve]",–
CCNC(=S)N/N=C(\C)c1ccc2ccccc2c1,"inconclusive: 8.91 µM [inhibitor, partial curve]",–
Cc1cccc(NC(=S)NNC(=O)c2csc(C)c2)c1,"inconclusive: 35.5 µM [inhibitor, single point]",–
Cc1cnc(CNc2cc(-c3ccoc3)ncn2)cn1,"inconclusive: 22.4 µM [inhibitor, partial curve, poor fit]",–
CCOC(=O)C(=Cc1ccc(F)cc1)C(=O)OCC,"inconclusive: 17.8 µM [inhibitor, partial curve]",–
N#Cc1c(N)sc2c1CCN(C(=O)OCc1ccccc1)C2,"inconclusive: 11.2 µM [inhibitor, partial curve, poor fit]",–
Cc1cc(C)c2c(N)c(C(=O)c3ccc(Br)cc3)oc2n1,"inconclusive: 25.1 µM [inhibitor, partial curve]",–
CN1c2ccsc2C(O)=C(C(=S)Nc2ccccc2)S1(=O)=O,"inconclusive: 22.4 µM [inhibitor, partial curve]",–
COc1ccc(OC)c(CCNC(=O)CC2Oc3ccccc3NC2=O)c1 (centres undefined),–,inactive: -18.7%
CCN1c2ccccc2NC2C1C(C(C)=O)C(=O)N2c1ccc(Cl)cc1 (centres undefined),"inconclusive: 25.1 µM [inhibitor, partial curve]",–
COCCOC(=O)c1c(C)oc2ccc(OC(=O)c3cccs3)cc12,–,inactive: -10.6%
CCOc1ccc(C(=O)NCC(=O)OCc2c(C)noc2C)cc1OCC,–,inactive: 3.03%
Cc1oc(-c2ccccc2F)nc1CS(=O)(=O)CC(=O)N1CCN(c2ccc(Cl)cc2)CC1,"inconclusive: 25.1 µM [inhibitor, partial curve]",–
Cc1ccc(-n2[nH]c(C)c(/C=N/Nc3ccc([N+](=O)[O-])cc3[N+](=O)[O-])c2=O)cc1C,active: 2.24 µM,–
CNc1nc2ccccc2n1/N=C/c1cccc(OC)c1OC,"inconclusive: 14.1 µM [inhibitor, partial curve]",–
C/C=C(\C)C(=O)C[Si](C)(C)c1ccccc1,"inconclusive: 0.794 µM [inhibitor, full curve, poor fit]",–
Cn1cc(CN2CCc3c([nH]c4ccccc34)C2C2CCCCC2)cn1 (centres undefined),"inconclusive: 12.6 µM [inhibitor, partial curve]",–

SMILES,Potency,"activity, negative = inhibition"
CNC(=O)/C=C1\NC(C)(C)Cc2ccccc21,"inconclusive: 39.8 µM [inhibitor, single point]",–
CC(=C\c1ccccc1)/C=C1/SC(=O)N(CCCC(=O)Nc2ccc(C(=O)O)cc2)C1=O,"inconclusive: 39.8 µM [inhibitor, single point]",–
Cc1ccc(C)c(N2CCN(C(=O)C3CCN(C(=O)c4cc5sccc5n4C)CC3)CC2)c1,"inconclusive: 17.8 µM [inhibitor, partial curve]",–
O=C(COc1ccc(/C=N/NC(=O)c2ccc(O)cc2)cc1)Nc1ccc([N+](=O)[O-])cc1,"inconclusive: 1.58 µM [inhibitor, full curve]",–
Cc1cc(C)c(Cc2c(C)nc3c(C(=O)NCc4ccco4)cnn3c2C)c(C)c1,"inconclusive: 20 µM [inhibitor, single point]",–
O=C(NNC(=S)Nc1ccc(F)c(Cl)c1)c1ccccc1Br,"inconclusive: 25.1 µM [inhibitor, single point]",–
S=c1[nH]nc(CSCc2ccccc2Cl)n1-c1ccccc1,–,inactive: -11.5%
CC(C)(C)Nc1nc(C(N)=O)nc(N2CCOCC2)n1,–,inactive: -0.642%
CCOc1ccc(Nc2c3ccccc3nc3ccccc23)cc1,active: 20 µM,–
CCOC(=O)C1CCN(c2ccc([N+](=O)[O-])c(C(C)=O)c2)CC1,"inconclusive: 14.1 µM [inhibitor, partial curve]",–
CCn1c(COc2cccc(C)c2)nc2ccccc21,"inconclusive: 20 µM [inhibitor, single point]",–
CCCCN(C)S(=O)(=O)c1ccc(C(=O)N(CCN(C)C)c2nc3ccc(C)cc3s2)cc1,–,inactive: -1.03%
Cc1nc2cccc(C(=O)NCc3ccccc3)c2o1,"inconclusive: 15.8 µM [inhibitor, partial curve]",–
Clc1ccccc1C(c1nnnn1Cc1ccco1)N1CCN(Cc2ccco2)CC1 (centres undefined),"inconclusive: 35.5 µM [inhibitor, single point]",–
Cc1[nH]c2ccc(C(=O)Nc3ccc(F)cc3)cc2c1C,active: 12.6 µM,–
CC(=O)N1CCc2c(sc(NC(=O)CN3C(=O)CCC3=O)c2C(N)=O)C1,–,inactive: -11.7%
Cc1ccc(C)c(-n2c(SCC(=O)NCC3CCCO3)nnc2-c2ccoc2C)c1 (centres undefined),"inconclusive: 31.6 µM [inhibitor, single point]",–
COc1ccccc1NS(=O)(=O)c1ccc(N/N=C/C=C/c2ccccc2[N+](=O)[O-])c([N+](=O)[O-])c1,"inconclusive: 2.24 µM [inhibitor, partial curve]",–
Cc1onc(-c2ccccc2)c1C(=O)Nc1sc2c(c1C(N)=O)CCC2,"inconclusive: 22.4 µM [inhibitor, single point]",–
CC(=O)C(C(C)=O)C1(O)C(=O)c2ccccc2C1=O,active: 2.82 µM,–
CCOc1cc(/C=N/NC(=O)c2cc(C)[nH]n2)ccc1OC(=O)c1ccc([N+](=O)[O-])cc1,"inconclusive: 2.82 µM [inhibitor, full curve]",–
Cc1nc2ccc(S(=O)(=O)CCC(=O)Nc3ccc(C(C)C)cc3)cc2s1,–,inactive: 1.1%
Cc1c(/C(O)=C2\C(=O)C(=O)N(CCCN(C)C)C2c2ccncc2)cnn1-c1ccccc1 (centres undefined),"inconclusive: 5.62 µM [inhibitor, single point]",–

# — PubChem BioAssay AID1460 (National Center for Advancing Translational Sciences (NCATS), 2008)
